# Measurements taken from the antibiotic and cytotoxicity screens of Wong et al. (2023).
# The other results are listed elsewhere or left out.
# Legend:
# HSkMC = human skeletal muscle cells; assay: cytotoxicity call (relative viability < 0.9); conditions: 10 µM
# HepG2 = assay: cytotoxicity call (relative viability < 0.9); conditions: 10 µM
# S. aureus RN4220 = assay: growth inhibition call (relative growth <= 0.2); conditions: 50 µM
Compound,cytotoxicity call (HSkMC),cytotoxicity call (HepG2),growth inhibition call (S. aureus RN4220)
C[C@@H]1CN([C@@H](C)CO)C(=O)c2cc(NS(=O)(=O)c3ccccc3)ccc2O[C@@H](C)CCCCO[C@@H]1CN(C)C(=O)C1CCCCC1,inactive,inactive,inactive
CNC[C@H]1OCCCC[C@@H](C)Oc2ccc(NC(=O)Nc3cccc4ccccc34)cc2C(=O)N([C@H](C)CO)C[C@@H]1C,inactive,inactive,inactive
Cc1ccc(S(=O)(=O)N(C)C[C@@H]2Oc3ccc(NS(=O)(=O)c4cn(C)cn4)cc3C(=O)N([C@@H](C)CO)C[C@@H]2C)cc1,inactive,inactive,inactive
CNC[C@@H]1OCCCC[C@H](C)Oc2ccc(NS(=O)(=O)c3c(C)noc3C)cc2C(=O)N([C@H](C)CO)C[C@@H]1C,inactive,inactive,inactive
C[C@@H]1CN([C@H](C)CO)C(=O)Cc2cc(NS(=O)(=O)c3ccccc3)ccc2O[C@H]1CN(C)S(C)(=O)=O,inactive,inactive,inactive
C[C@H](CO)N1C[C@H](C)[C@@H](CN(C)S(=O)(=O)c2ccccc2)Oc2ncc(C#CCN(C)C)cc2C1=O,inactive,inactive,inactive
COc1ccc([Si](C)(C)[C@@H]2[C@@H](CCn3cc([C@H](O)c4ccccc4)nn3)O[C@]3(C(=O)N(C)c4c(Br)cc(C)cc43)[C@H]2C)cc1,active,inactive,inactive
C[C@@H]1CN([C@H](C)CO)C(=O)c2c(c3ccccc3n2C)-c2ccccc2CO[C@H]1CN(C)C(=O)Nc1ccc2c(c1)OCO2,inactive,inactive,inactive
COc1ccc(CN(C)C[C@@H]2Oc3ccc(NS(=O)(=O)c4cn(C)cn4)cc3CC(=O)N([C@H](C)CO)C[C@H]2C)cc1,inactive,inactive,inactive
O=C(C[C@H]1CC[C@H]2[C@@H](COC[C@@H](O)CN2S(=O)(=O)c2ccc(F)cc2)O1)N[C@@H]1CCN(Cc2ccccc2)C1,inactive,inactive,inactive
N[C@H](C(=O)O)c1cc(O)cc(O)c1,inactive,inactive,inactive
N=c1sccn1CC(=O)O,inactive,inactive,inactive
O=C(O)[C@H](O)c1ccc(F)cc1,inactive,inactive,inactive
C[C@H]1O[C@@H](OC[C@H]2O[C@@H](O[C@H]3CC[C@]4(C)[C@H]5CCC6=C(CC[C@@]7(C(=O)O[C@@H]8O[C@H](CO)[C@@H](O)[C@H](O)[C@H]8O[C@@H]8O[C@H](CO)[C@@H](O)[C@H](O)[C@H]8O)CCC(C)(C)C[C@@H]67)[C@]5(C)CC[C@H]4C3(C)C)[C@H](O)[C@@H](O)[C@@H]2O)[C@H](O)[C@@H](O)[C@@H]1O,inactive,inactive,inactive
C[C@@H]1CN([C@@H](C)CO)C(=O)c2cc(NC(=O)c3ccncc3)ccc2O[C@@H]1CN(C)Cc1ccc(Oc2ccccc2)cc1,inactive,inactive,inactive
C[C@H](CO)N1C[C@H](C)[C@H](CN(C)Cc2ccc(-c3ccccc3)cc2)Oc2ccc(NC(=O)Cc3ccccc3)cc2C1=O,inactive,active,inactive
C[C@@H]1CN([C@H](C)CO)C(=O)c2cc(NC(=O)Nc3ccccc3)ccc2O[C@@H](C)CCCCO[C@H]1CN(C)Cc1ccc(C(=O)O)cc1,inactive,inactive,inactive
Cc1noc(C)c1NC(=O)Nc1ccc2c(c1)C(=O)N([C@@H](C)CO)C[C@H](C)[C@@H](CN(C)C(=O)Nc1cccc3ccccc13)O2,inactive,inactive,inactive
COc1ccc(NC(=O)N(C)C[C@H]2Oc3ccc(NC(=O)CCN4CCOCC4)cc3C(=O)N([C@@H](C)CO)C[C@@H]2C)cc1,inactive,inactive,inactive
C[C@@H]1CN([C@@H](C)CO)C(=O)c2cc(N(C)C)ccc2O[C@H]1CN(C)S(=O)(=O)c1ccc(Cl)cc1,inactive,inactive,inactive
Cc1cc(C(=O)Nc2cccc3c2O[C@@H](CN(C)Cc2ccccc2)[C@@H](C)CN([C@H](C)CO)C3=O)n(C)n1,inactive,inactive,inactive
C[C@H](CO)N1C[C@H](C)[C@@H](CN(C)Cc2ccc3c(c2)OCO3)Oc2ccc(NC(=O)c3ccncc3)cc2CC1=O,inactive,inactive,inactive
C[C@H](CO)N1C[C@H](C)[C@@H](CN(C)S(=O)(=O)c2cn(C)cn2)Oc2ccc(NC(=O)C3CCCCC3)cc2C1=O,inactive,inactive,inactive
C[C@@H]1CN([C@H](C)CO)S(=O)(=O)c2ccc(-c3cccc(C#N)c3)cc2O[C@@H]1CN(C)C(=O)c1cccnc1,inactive,inactive,inactive
CCC(=O)O,inactive,inactive,inactive
C[C@H]1CN([C@@H](C)CO)C(=O)c2cc(C#CC3(O)CCCC3)cnc2O[C@@H]1CN(C)C(=O)Cc1ccccc1,inactive,inactive,inactive
CC(=O)O[C@H]1C[C@@]2(C)[C@@H](C[C@@H](O)[C@H]3[C@@]4(C)CC[C@@H](O)[C@@H](C)[C@@H]4CC[C@@]32C)/C1=C(\CCC=C(C)C)C(=O)O,inactive,inactive,active
C[C@@H]1CN([C@@H](C)CO)S(=O)(=O)c2ccc(-c3ccccc3F)cc2O[C@@H]1CN(C)Cc1cncnc1,inactive,inactive,inactive
